Binding data for three substances are collected here from PMC4381075, “An intrinsically disordered region of methyl-CpG binding domain protein 2 (MBD2) recruits the histone deacetylase core of the NuRD complex”.

Protein sequences, listed by entry. Tags and fused reporters are not part of them. Lines headed by an entry give the natural chain unless they say otherwise; changes in a name come on top. Chains listed by the source or under a name are the forms on record and can include a tag or linker. Residues count along the entry.
flag-tagged MBD2IDR (without scMBD2-p66α) (Q9UBB5, residues 212-360): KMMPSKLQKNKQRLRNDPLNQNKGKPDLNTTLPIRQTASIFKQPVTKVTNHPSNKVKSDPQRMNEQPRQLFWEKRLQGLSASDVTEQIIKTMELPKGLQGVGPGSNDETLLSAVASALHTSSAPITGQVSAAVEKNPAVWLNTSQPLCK
flag-tagged MBD2IDR first and second sub-regions in combination (amino acids 212–316) (Q9UBB5, residues 212-316): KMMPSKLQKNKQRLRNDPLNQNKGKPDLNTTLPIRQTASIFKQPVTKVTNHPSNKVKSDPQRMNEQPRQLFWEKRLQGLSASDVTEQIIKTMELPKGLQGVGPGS
flag-tagged MBD2IDR first sub-region (amino acids 212–273) (Q9UBB5, residues 212-273): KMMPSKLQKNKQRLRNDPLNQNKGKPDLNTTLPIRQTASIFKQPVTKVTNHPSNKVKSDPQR
flag-tagged MBD2IDR second sub-region (amino acids 274–316) (Q9UBB5, residues 274-316): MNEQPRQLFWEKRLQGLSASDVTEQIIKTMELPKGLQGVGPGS
flag-tagged MBD2IDR third sub-region (amino acids 317–360) (Q9UBB5, residues 317-360): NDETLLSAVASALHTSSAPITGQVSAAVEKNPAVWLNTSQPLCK
UniProt Q86YP4: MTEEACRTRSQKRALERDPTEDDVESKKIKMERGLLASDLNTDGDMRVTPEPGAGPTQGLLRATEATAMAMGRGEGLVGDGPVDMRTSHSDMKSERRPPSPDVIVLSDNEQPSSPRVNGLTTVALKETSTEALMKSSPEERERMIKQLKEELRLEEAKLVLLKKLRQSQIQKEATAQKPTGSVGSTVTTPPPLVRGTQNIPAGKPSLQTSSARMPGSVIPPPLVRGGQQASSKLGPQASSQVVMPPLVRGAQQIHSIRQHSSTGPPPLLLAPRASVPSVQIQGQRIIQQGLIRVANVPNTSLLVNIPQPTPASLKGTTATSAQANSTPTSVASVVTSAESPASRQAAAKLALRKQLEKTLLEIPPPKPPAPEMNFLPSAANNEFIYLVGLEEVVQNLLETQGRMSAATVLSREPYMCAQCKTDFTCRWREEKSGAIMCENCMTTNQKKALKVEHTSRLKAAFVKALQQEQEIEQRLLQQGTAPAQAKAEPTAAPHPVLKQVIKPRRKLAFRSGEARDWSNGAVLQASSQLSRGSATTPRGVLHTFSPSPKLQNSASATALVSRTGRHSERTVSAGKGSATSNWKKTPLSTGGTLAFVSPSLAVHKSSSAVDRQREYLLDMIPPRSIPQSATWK
UniProt Q14839: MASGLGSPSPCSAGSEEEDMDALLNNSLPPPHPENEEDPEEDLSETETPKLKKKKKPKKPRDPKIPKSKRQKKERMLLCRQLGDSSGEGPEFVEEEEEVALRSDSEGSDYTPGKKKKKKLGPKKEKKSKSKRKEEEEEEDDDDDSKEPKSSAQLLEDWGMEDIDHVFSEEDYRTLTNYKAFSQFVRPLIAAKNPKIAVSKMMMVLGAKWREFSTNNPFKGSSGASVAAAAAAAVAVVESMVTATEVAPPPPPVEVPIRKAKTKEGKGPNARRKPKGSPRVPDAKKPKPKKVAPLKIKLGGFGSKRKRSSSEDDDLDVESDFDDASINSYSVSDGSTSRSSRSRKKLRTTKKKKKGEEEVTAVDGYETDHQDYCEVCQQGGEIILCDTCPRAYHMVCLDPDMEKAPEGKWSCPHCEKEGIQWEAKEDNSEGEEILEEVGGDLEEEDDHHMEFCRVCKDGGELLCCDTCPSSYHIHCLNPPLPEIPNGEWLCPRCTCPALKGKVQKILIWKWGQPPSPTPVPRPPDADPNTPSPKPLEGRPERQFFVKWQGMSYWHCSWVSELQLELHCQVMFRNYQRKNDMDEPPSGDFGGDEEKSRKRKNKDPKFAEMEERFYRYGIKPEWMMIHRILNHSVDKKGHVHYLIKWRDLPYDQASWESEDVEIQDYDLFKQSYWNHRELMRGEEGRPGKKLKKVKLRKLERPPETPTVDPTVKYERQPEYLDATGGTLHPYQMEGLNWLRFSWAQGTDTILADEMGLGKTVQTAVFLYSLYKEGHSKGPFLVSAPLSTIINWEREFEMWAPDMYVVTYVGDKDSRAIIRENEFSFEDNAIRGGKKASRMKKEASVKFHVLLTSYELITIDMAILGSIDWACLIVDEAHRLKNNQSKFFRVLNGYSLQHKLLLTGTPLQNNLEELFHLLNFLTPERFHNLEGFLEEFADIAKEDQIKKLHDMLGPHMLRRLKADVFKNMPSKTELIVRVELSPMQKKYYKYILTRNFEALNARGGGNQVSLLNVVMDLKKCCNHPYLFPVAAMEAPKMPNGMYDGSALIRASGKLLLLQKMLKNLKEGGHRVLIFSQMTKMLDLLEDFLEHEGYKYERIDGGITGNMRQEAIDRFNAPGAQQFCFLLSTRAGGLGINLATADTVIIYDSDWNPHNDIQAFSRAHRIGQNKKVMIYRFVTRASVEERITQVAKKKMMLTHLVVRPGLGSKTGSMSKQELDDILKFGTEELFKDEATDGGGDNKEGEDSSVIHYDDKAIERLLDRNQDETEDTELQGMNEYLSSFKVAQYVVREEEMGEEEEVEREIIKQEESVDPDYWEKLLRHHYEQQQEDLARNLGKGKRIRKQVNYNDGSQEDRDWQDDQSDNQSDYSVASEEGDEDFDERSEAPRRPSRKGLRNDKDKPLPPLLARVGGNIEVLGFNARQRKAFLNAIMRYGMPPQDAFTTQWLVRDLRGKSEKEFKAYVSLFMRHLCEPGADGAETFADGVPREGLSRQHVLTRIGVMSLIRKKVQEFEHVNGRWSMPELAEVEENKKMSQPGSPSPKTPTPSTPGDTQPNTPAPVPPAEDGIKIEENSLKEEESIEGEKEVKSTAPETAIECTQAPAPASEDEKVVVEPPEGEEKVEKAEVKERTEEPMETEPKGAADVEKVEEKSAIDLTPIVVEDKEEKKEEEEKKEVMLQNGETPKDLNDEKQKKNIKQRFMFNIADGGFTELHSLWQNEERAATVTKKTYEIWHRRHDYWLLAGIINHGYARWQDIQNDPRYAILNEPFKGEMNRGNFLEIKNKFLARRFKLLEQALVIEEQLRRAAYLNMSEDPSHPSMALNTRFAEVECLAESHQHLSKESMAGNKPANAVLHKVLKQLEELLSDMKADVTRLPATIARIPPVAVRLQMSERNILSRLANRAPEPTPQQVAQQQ
UniProt Q92769: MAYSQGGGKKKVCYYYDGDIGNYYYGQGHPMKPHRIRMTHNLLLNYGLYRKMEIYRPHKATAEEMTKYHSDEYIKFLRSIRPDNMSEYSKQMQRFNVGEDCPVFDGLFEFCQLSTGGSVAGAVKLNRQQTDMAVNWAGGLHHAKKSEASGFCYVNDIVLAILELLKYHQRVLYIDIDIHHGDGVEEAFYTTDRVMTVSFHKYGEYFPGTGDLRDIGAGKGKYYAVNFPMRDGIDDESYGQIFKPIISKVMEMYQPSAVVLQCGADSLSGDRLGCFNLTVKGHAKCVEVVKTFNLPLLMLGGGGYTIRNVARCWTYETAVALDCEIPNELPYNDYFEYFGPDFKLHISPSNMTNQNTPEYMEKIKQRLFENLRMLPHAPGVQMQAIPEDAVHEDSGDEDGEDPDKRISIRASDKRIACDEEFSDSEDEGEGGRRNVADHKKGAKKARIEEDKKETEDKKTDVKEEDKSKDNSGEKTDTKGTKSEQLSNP
UniProt Q09028: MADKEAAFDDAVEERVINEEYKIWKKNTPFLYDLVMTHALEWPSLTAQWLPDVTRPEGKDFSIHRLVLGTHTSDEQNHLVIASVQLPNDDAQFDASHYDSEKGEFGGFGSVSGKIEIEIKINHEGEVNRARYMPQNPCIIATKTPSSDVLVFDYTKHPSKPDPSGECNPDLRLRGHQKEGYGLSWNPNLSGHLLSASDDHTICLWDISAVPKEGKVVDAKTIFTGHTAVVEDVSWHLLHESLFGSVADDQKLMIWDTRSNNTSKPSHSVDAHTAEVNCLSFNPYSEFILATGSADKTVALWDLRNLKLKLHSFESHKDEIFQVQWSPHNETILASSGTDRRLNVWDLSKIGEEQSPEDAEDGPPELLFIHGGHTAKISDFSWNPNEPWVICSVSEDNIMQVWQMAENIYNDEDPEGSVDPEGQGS

These are yes or no findings as the source states them, for the method shown. Binding seen in cells or lysates may run through a third protein. Some results given as binding are weak or reduced against the parent protein; the word gives no strength.

Common to all, as to experiment: co-IP; HEK 293T transfected with flag-tagged MBD2 constructs; lysate immunoprecipitated with anti-flag M2 antibody (mouse IgG control); western blot for endogenous NuRD components
In general terms: A western blot detects proteins with antibodies after separation by electrophoresis.

Assay [1] addresses flag-tagged MBD2IDR (without scMBD2-p66α) (human) (UniProt Q9UBB5).
In assay [2] the target is flag-tagged MBD2IDR first and second sub-regions in combination (amino acids 212–316) (human) (UniProt Q9UBB5).
Assay [3] concerns the target flag-tagged MBD2IDR first sub-region (amino acids 212–273) (human) (UniProt Q9UBB5).
The target of assay [4] is flag-tagged MBD2IDR second sub-region (amino acids 274–316) (human) (UniProt Q9UBB5).
The target of assay [5] is flag-tagged MBD2IDR third sub-region (amino acids 317–360) (human) (UniProt Q9UBB5).
Assay [6] deals with flag-tagged MBD2IDR with scMBD2-p66α (human) (UniProt Q9UBB5+Q86YP4).
The target of assay [7] is flag-tagged scMBD2-p66α (single-chain coiled-coil construct) (human) (UniProt Q9UBB5+Q86YP4).

As for “CHD4 (from UniProt Q14839 1-1912) (enzyme)”, in assay [1], the binding result is given as “no binding”.
“HDAC2 (from UniProt Q92769 1-488) (enzyme)”: the binding result in assay [1] is given as “binds”; in assay [2], “binds”; in assay [3], “no binding”; in assay [4], “no binding”; in assay [5] it was “no binding”; in assay [6], “binds”. The binding entry in assay [7] is “no binding”.
Turning to RbAp48 (from UniProt Q09028 1-425), the binding entry in assay [1] was “binds”; in assay [2] it was “binds”; in assay [3] it was “no binding”; in assay [4] it was “no binding”; in assay [5], “no binding”; in assay [6] it was “binds”. In assay [7], the binding result was “no binding”.
